Some of the results follow.
B1: Q9UKT9 (peptide)
chain: FGCEICGHPFTQKGNLLRHIKL
B2: Q9UKT9 (peptide)
chain: FVCPICGARFTQKGNLLRHIKL
B3: Q9UKT9 (peptide)
chain: LFCEICGFLCTQKGNLLRHIKL
B4: Q9UKT9 (peptide)
chain: FDCEICGRGFTQKGNLLRHIKL
B5: Q9UKT9 (peptide)
chain: LSCPICGFDCTQKGNLLRHIKL
B6: Q9UKT9 (peptide)
chain: FNCNICGAKFTQKGNLLRHIKL
B7: Q9UKT9 (peptide)
chain: FACNQCGAPFTQKGNLLRHIKL
B8: Q9UKT9 (peptide)
chain: FYCNQCGAKFTQKGNLLRHIKL
B9: Q9UKT9 (peptide)
chain: FYCEQCGACFTQKGNLLRHIKL
B10: Q9UKT9 (peptide)
chain: FNCEICGRGFTQKGNLLRHIKL
B11: Q9UKT9 (peptide)
chain: FKCPICGRPFTQKGNLLRHIKL
B12: Q9UKT9 (peptide)
chain: FICEICGATFTQKGNLLRHIKL
B13: Q9UKT9 (peptide)
chain: FGCPICGAMFTQKGNLLRHIKL
B14: Q9UKT9 (peptide)
chain: LNCNQCGFDCTQKGNLLRHIKL
B15: Q9UKT9 (peptide)
chain: FVCNVCGAMFTQKGNLLRHIKL
B16: Q9UKT9 (peptide)
chain: FECEQCGASFTQKGNLLRHIKL
B17: Q9UKT9 (peptide)
chain: LGCEICGFLCTQKGNLLRHIKL
B18: Q9UKT9 (peptide)
chain: FDCNVCGATFTQKGNLLRHIKL
B19: Q9UKT9 (peptide)
chain: FACPICGHEFTQKGNLLRHIKL
B20: Q9UKT9 (peptide)
chain: FICDQCGAGFTQKGNLLRHIKL
B21: Q9UKT9 (peptide)
chain: FACSVCGHIFTQKGNLLRHIKL
B22: Q9UKT9 (peptide)
chain: FVCDQCGAFFTQKGNLLRHIKL
B23: Q9UKT9 (peptide)
chain: FQCDQCGAYFTQKGNLLRHIKL
B24: Q9UKT9 (peptide)
chain: FRCEICGHDFTQKGNLLRHIKL
B25: Q9UKT9 (peptide)
chain: FECPICGHKFTQKGNLLRHIKL
B26: Q9UKT9 (peptide)
chain: FVCEQCGAYFTQKGNLLRHIKL
B27: Q9UKT9 (peptide)
chain: FVCNVCGANFTQKGNLLRHIKL
B28: Q9UKT9 (peptide)
chain: FMCNVCGAKFTQKGNLLRHIKL
B29: Q9UKT9 (peptide)
chain: FHCPVCGASFTQKGNLLRHIKL
B30: Q9UKT9 (peptide)
chain: FFCEVCGANFTQKGNLLRHIKL
B31: Q9UKT9 (peptide)
chain: FNCDQCGAWFTQKGNLLRHIKL
B32: Q9UKT9 (peptide)
chain: LHCEICGFSCTQKGNLLRHIKL
B33: Q9UKT9 (peptide)
chain: FWCPICGARFTQKGNLLRHIKL
B34: Q9UKT9 (peptide)
chain: FICPICGASFTQKGNLLRHIKL
B35: Q9UKT9 (peptide)
chain: FSCPICGHKFTQKGNLLRHIKL
B36: Q9UKT9 (peptide)
chain: FLCPICGHNFTQKGNLLRHIKL
B37: Q9UKT9 (peptide)
chain: FICPICGHPFTQKGNLLRHIKL
B38: Q9UKT9 (peptide)
chain: FWCEICGRPFTQKGNLLRHIKL
B39: Q9UKT9 (peptide)
chain: FWCDQCGASFTQKGNLLRHIKL
B40: Q9UKT9 (peptide)
chain: FDCDVCGADFTQKGNLLRHIKL
B41: Q9UKT9 (peptide)
chain: FACEVCGAAFTQKGNLLRHIKL
B42: Q9UKT9 (peptide)
chain: FYCPICGHEFTQKGNLLRHIKL
B43: Q9UKT9 (peptide)
chain: FQCNQCGARFTQKGNLLRHIKL
B44: Q9UKT9 (peptide)
chain: FNCDQCGAPFTQKGNLLRHIKL
B45: Q9UKT9 (peptide)
chain: FICDICGAMFTQKGNLLRHIKL
B46: Q9UKT9 (peptide)
chain: FRCDVCGAIFTQKGNLLRHIKL
B47: Q9UKT9 (peptide)
chain: FCCPICGHSFTQKGNLLRHIKL
B48: Q9UKT9 (peptide)
chain: FQCDQCGATFTQKGNLLRHIKL
B49: Q9UKT9 (peptide)
chain: FWCPICGHMFTQKGNLLRHIKL
B50: Q9UKT9 (peptide)
chain: FKCEICGRTFTQKGNLLRHIKL
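Also: jurkat cells carrying a lentiviral library of mutant zinc finger degrons fused to EGFP plus mCherry, mCherry+ cells FACS sorted, degron abundance counted by next-generation sequencing.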

Each sequence was assayed against no compound (DMSO) (assay: log2 fold change of degron read counts, EGFP-low vs EGFP+ sorted cells; higher = lower degron-EGFP level without compound (poor expression or instability)). Conditions: compound: DMSO control; 18 h.
With B1 the “log2 fold change of degron read counts” value was -0.237. B2 was tested, and the “log2 fold change of degron read counts” value was -0.502. With B3 the “log2 fold change of degron read counts” value was 1.93. In the case of B4, the “log2 fold change of degron read counts” value is reported as -0.758. For B5, the “log2 fold change of degron read counts” value was 0.128. With B6 the “log2 fold change of degron read counts” value was -0.604. In the case of B7, the “log2 fold change of degron read counts” value is reported as -0.239. With B8 the “log2 fold change of degron read counts” value was -0.179. In the case of B9, the “log2 fold change of degron read counts” value is reported as -0.792. With B10 the “log2 fold change of degron read counts” value was -2.17. In the case of B11, the “log2 fold change of degron read counts” value is reported as -0.319. For B12, the “log2 fold change of degron read counts” value was -1.41. B13 was tested, and the “log2 fold change of degron read counts” value was -0.185. For B14, the “log2 fold change of degron read counts” value was -0.418. B15 was tested, and the “log2 fold change of degron read counts” value was -0.477. In the case of B16, the “log2 fold change of degron read counts” value is reported as -3.21. For B17, the “log2 fold change of degron read counts” value was 1.91. In the case of B18, the “log2 fold change of degron read counts” value is reported as -1.74. In the case of B19, the “log2 fold change of degron read counts” value is reported as -0.569. In the case of B20, the “log2 fold change of degron read counts” value is reported as -2.82. With B21 the “log2 fold change of degron read counts” value was 0.889. In the case of B22, the “log2 fold change of degron read counts” value is reported as -1.07. In the case of B23, the “log2 fold change of degron read counts” value is reported as -1.3. In the case of B24, the “log2 fold change of degron read counts” value is reported as -0.9. For B25, the “log2 fold change of degron read counts” value was -0.866. In the case of B26, the “log2 fold change of degron read counts” value is reported as -1.13. In the case of B27, the “log2 fold change of degron read counts” value is reported as -1.03. For B28, the “log2 fold change of degron read counts” value was -0.424. In the case of B29, the “log2 fold change of degron read counts” value is reported as -0.782. In the case of B30, the “log2 fold change of degron read counts” value is reported as -0.844. For B31, the “log2 fold change of degron read counts” value was -0.19. With B32 the “log2 fold change of degron read counts” value was -0.358. B33 was tested, and the “log2 fold change of degron read counts” value was 0.128. B34 was tested, and the “log2 fold change of degron read counts” value was -0.299. For B35, the “log2 fold change of degron read counts” value was -0.447. In the case of B36, the “log2 fold change of degron read counts” value is reported as 0.529. B37 was tested, and the “log2 fold change of degron read counts” value was -0.681. For B38, the “log2 fold change of degron read counts” value was 0.221. With B39 the “log2 fold change of degron read counts” value was -1.34. In the case of B40, the “log2 fold change of degron read counts” value is reported as -0.894. In the case of B41, the “log2 fold change of degron read counts” value is reported as -1.67. In the case of B42, the “log2 fold change of degron read counts” value is reported as -0.225. B43 was tested, and the “log2 fold change of degron read counts” value was -0.154. With B44 the “log2 fold change of degron read counts” value was -1.73. With B45 the “log2 fold change of degron read counts” value was -1.17. In the case of B46, the “log2 fold change of degron read counts” value is reported as -0.778. For B47, the “log2 fold change of degron read counts” value was -0.384. For B48, the “log2 fold change of degron read counts” value was -1.9. In the case of B49, the “log2 fold change of degron read counts” value is reported as 2.02. B50 was tested, and the “log2 fold change of degron read counts” value was -1.27.

— the supplement of paper PMC12645437, “Orthogonal IMiD-Degron Pairs Induce Selective Protein Degradation in Cells” (ACS Chemical Biology, 2025)
